Hit rate of the full screen: of about 350,000 compounds, about 260 (0.074%) were called active. The inconclusive results got no clear call from the source; some entries with a clear call stand among them for comparison. The call rests on the fitted dose curve; in most records, active means well fitted inhibition curve with a large enough effect; inconclusive means small, poorly fitted or top-dose-only effect; inactive means no such curve, though single readings can be large or run the other way. Potencies of inconclusive entries are doubtful fits and often do not repeat.
Biological target: Ferritin light chain (Equus caballus) (UniProt P02791)
UniProt P02791, sequence (P02791 whole entry, looked up): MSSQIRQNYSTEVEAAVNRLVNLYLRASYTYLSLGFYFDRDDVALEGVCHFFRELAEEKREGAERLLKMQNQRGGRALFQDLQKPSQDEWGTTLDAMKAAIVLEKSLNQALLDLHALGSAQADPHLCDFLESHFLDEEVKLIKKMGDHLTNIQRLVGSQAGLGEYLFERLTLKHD
Assay: qHTS Assay for Identification of Novel General Anesthetics; further: nearly all actives have a fitted effect of over 20% in size
Conditions: apoferritin/1-aminoanthracene competitive binding, fluorescence; activity change, negative = displacement: at 77.5 µM (top of the series)
Outline: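 Steps: apoferritin (10 uM) was premixed with half-saturated 1-AMA in PBS, compounds were pin-transferred, plates stood 10 min at room temperature, fluorescence was read at 380/535 nm, and curves were fitted with a Hill equation.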
On the % scale 0 is the no-effect control and ±100 the full control effect; potency means the concentration at half of the fitted maximal effect; tags describe the fitted curve by direction and shape.

Potency, inactive:
N/C(=N\OC(=O)C1CCCCC1)c1cccc(Br)c1
COc1cc(C(CC(=O)Nc2ccc(F)cc2F)N2Cc3ccccc3C2=O)cc(OC)c1OC (centres undefined)
CCS(=O)(=O)c1ncc(N(Cc2ccccc2)Cc2ccco2)c(C(=O)Nc2ccc(C)c(C)c2)n1
O=C(Cn1c(=O)oc2cc(Cl)ccc21)Nc1cccc(C(F)(F)F)c1
Cc1ccc2cccc(NC(=O)COc3cc(C)c(Cl)c(C)c3)c2n1
COc1ccc2[nH]c(=O)c(CNC3CCCCC3)cc2c1
C#CC(=O)N(c1cccc(OC)c1)C(C(=O)NC1CCCC1)c1cccs1 (centres undefined)
CC(C)CC[n+]1ccccc1/C=C/c1ccc(N(C)C)cc1
CCOc1ccc(NCc2cccn2-c2nnc(N3CCC(C(=O)NCCCN4CCCCC4C)CC3)s2)cc1 (centres undefined)
CC1CCc2c(sc(/N=C/c3cccnc3)c2C(N)=O)C1 (centres undefined)
CC1(C)CC(=O)C2=C(C1)OC(N)=C(C#N)C2C#Cc1ccccc1 (centres undefined)
COc1ccccc1CNc1cc(-c2ccccc2)ccc1OC
Cc1ccc(OCC(=O)c2cc(C)n(-c3ccccc3)c2C)c([N+](=O)[O-])n1
O=C(O)c1ccc(N2CC3CC(C2)c2cccc(=O)n2C3)c(NC(=S)Nc2ccc(Br)cc2)c1 (centres undefined)
Cc1ccc(-n2nc(CO)c(C(=O)NC(C)CCCc3ccccc3)n2)cc1C (centres undefined)
COC(=O)c1cc2c(ccn2-c2ccc(F)cc2)n1Cc1ccc(OC)cc1
COc1ccccc1NC(=O)Nc1ccnn1Cc1cccs1
CCc1nc2nc(C)c(NS(=O)(=O)c3cccs3)c(=O)n2[nH]1
COc1ccccc1C(=O)Nc1nnc(SCc2cc(=O)c3cc(Cl)ccc3[nH]2)s1
O=C(c1ccco1)n1nc(-c2ccccc2)nc1NCc1ccc(F)cc1
CCC(C)C(=O)Nc1nc2ccc(S(C)(=O)=O)cc2s1 (centres undefined)
CCCCNC(=O)c1ccc2c(c1)NC(=O)C(CS(=O)(=O)Cc1cccc(C)c1)N2 (centres undefined)

Potency, inconclusive:
CC1CCCCC1NC(=O)CN1C(=O)NC(C)(c2ccc(OC(F)F)cc2)C1=O (centres undefined) 39.8 µM [inhibitor, partial curve]
COc1ccc(-n2c(=S)[nH]c3cc(C(=O)Nc4cc(OC)c(OC)c(OC)c4)ccc3c2=O)c(OC)c1 15.8 µM [inhibitor, partial curve]
C=CCn1c(CSc2nc3ccccc3s2)n[nH]c1=S 35.5 µM [inhibitor, partial curve]
Cc1cccc(Oc2c(C=O)c3ccccc3n2C)c1 44.7 µM [inhibitor, partial curve]
CCc1nc(SCC(=O)Nc2cccc(C(F)(F)F)c2)c2c(=O)n(C)c(=O)n(C)c2n1 3.55 µM [inhibitor, single point]
O=C(NC1CCCCCC1)c1ccc(Br)o1 56.2 µM [inhibitor, single point]
CCN(CC)S(=O)(=O)c1ccc(OC)c(NC(=O)c2cccc(C)c2[N+](=O)[O-])c1 39.8 µM [inhibitor, partial curve]
CCCCCC(=O)N1CCCC(c2nc(-c3ccc(OC)cc3)no2)C1 (centres undefined) 50.1 µM [inhibitor, single point]
Cc1ccc(OCc2cc(C(=O)NCC3COCCO3)no2)cc1C (centres undefined) 31.6 µM [inhibitor, partial curve]
Cc1ccc(S(=O)(=O)Nc2ccc(NC(=O)c3cccnc3)cc2)cc1 31.6 µM [inhibitor, partial curve]
Cc1ccc(F)cc1NC(=O)CCC(=O)c1cccs1 25.1 µM [inhibitor, partial curve]
CC1CCc2c(sc3nc(CN4CCOCC4)nc(NS(=O)(=O)c4cccc([N+](=O)[O-])c4)c23)C1 (centres undefined) 31.6 µM [inhibitor, single point]
Cc1cc(Cl)ccc1C(=O)C1CCCN(C(=O)c2nonc2C)C1 (centres undefined) 31.6 µM [inhibitor, partial curve]
[N-]=[N+]=NC[C@H](c1ccccc1)N1CCN(Cc2ccccc2)CCC1=O 31.6 µM [inhibitor, single point]
CC1CC(C)CN(C(=O)c2ccc3c(=O)n(Cc4ccc5c(c4)OCO5)c(=S)[nH]c3c2)C1 (centres undefined) 2.82 µM [inhibitor, full curve]
Cc1c(Cl)cccc1NC(=O)c1noc2c1CCCC2 31.6 µM [inhibitor, partial curve]
NNC(=O)Cc1csc(-c2ccccc2)n1 39.8 µM [inhibitor, single point]
Cc1cccc(NC(=O)COC(=O)CCc2ccccc2)c1C 39.8 µM [inhibitor, single point]
COc1ccc(CCNC(=O)c2cccc(NS(=O)(=O)c3ccccc3F)c2)cc1OC 20 µM [inhibitor, partial curve]
CC(C)C(=O)Nc1cccc(NC(=S)NC(=O)c2ccc([N+](=O)[O-])cc2)c1 39.8 µM [inhibitor, partial curve]
Cc1ccc(O)c(NC(=O)c2ccc(Br)c(S(=O)(=O)N3CCCCC3)c2)c1 17.8 µM [inhibitor, partial curve]
O=C(NC1CCCCC1)c1cccc(Cn2cc(Cl)cn2)c1 39.8 µM [inhibitor, partial curve]
Cc1cc2oc(=O)cc(CN3CCCc4ccccc43)c2cc1C 11.2 µM [inhibitor, partial curve]
Cc1nn(-c2ccc(Cl)cc2)c2[nH]c(=O)c(CNCc3ccc4c(c3)OCO4)cc12 20 µM [inhibitor, partial curve]
Cc1cc(C(F)(F)F)c2sc(N)nc2n1 56.2 µM [inhibitor, single point]
CCOC(=O)c1cnc(SCC(=O)c2ccc(Cl)cc2)nc1N 28.2 µM [inhibitor, partial curve]
CC(C)c1ccccc1OS(N)(=O)=O 22.4 µM [inhibitor, partial curve]
O=C(N/N=C/c1c(F)cccc1Cl)C(=O)N1CCCCCC1 14.1 µM [inhibitor, partial curve]
C=C(C)COc1ccc(-c2[nH]ncc2-c2ccc(OC)cc2)c(O)c1 14.1 µM [inhibitor, partial curve]
Cc1cccc(C2c3[nH]c4ccccc4c3CCN2Cc2cnn(-c3ccc(F)cc3)c2)n1 (centres undefined) 10 µM [inhibitor, partial curve]
O=C(OCC(=O)C12CC3CC(CC(C3)C1)C2)c1ccccn1 7.94 µM [inhibitor, partial curve]
COc1cccc(CNC(=O)c2ccc3c(c2)nnn3C2CCCC2)c1 28.2 µM [inhibitor, partial curve]
Cc1ccc(-n2cc(-c3ccccc3)nc2S(=O)(=O)CC(=O)Nc2ccc(F)cc2)cc1 3.55 µM [inhibitor, full curve]
CC(C)CC(C(=O)N1CCc2ccccc2C1)N1C(=O)c2ccccc2C1=O (centres undefined) 28.2 µM [inhibitor, partial curve]
COc1ccc(C(=O)Oc2c(CN3CCOCC3)cc(Cl)c3cccnc23)cc1 25.1 µM [inhibitor, partial curve]
CCOC(=O)N1CCN(c2cc(N3CCN(CC)CC3)c(F)cc2[N+](=O)[O-])CC1C (centres undefined) 28.2 µM [inhibitor, partial curve]
CC1(C)N=C(SCC(=O)Nc2ccccc2)C(c2ccc(Cl)cc2)=N1 28.2 µM [inhibitor, partial curve]
Cc1c(N=C/C=C2\N(C)c3ccccc3C2(C)C)c(=O)n(-c2ccccc2)n1C 50.1 µM [inhibitor, partial curve, poor fit]
CCCN(CCC)Cc1c(C(=O)N/N=C/c2ccco2)nnn1-c1nonc1N 50.1 µM [inhibitor, single point]
COc1cc(OC)cc(C(=O)NCC(=O)OCC(=O)N2CC(C)CC(C)C2)c1 (centres undefined) 20 µM [inhibitor, partial curve]
CC(=O)Nc1ccc(C(O)(C(F)(F)F)C(F)(F)F)cc1 31.6 µM [inhibitor, partial curve]
COc1ccc(C(=S)N2CCCCC2)cc1Br 22.4 µM [inhibitor, partial curve]
Cc1cccc(C)c1NS(=O)(=O)c1ccc(F)cc1 25.1 µM [inhibitor, single point]
COc1ccc(-n2cnnc2SCc2csc(-c3ccccc3)n2)cc1 22.4 µM [inhibitor, partial curve]
Cc1cc(C)nc(/N=C(\N)Nc2ccc(CC(=O)OC(C)C)cc2)n1 12.6 µM [inhibitor, partial curve]
CCCCn1nnc(NC(=S)NC(=O)c2ccc(OCC)c([N+](=O)[O-])c2)n1 22.4 µM [inhibitor, partial curve]

Activity change, negative = displacement, inconclusive:
COc1cccc(CN(C(=O)/C=C/c2ccco2)C2CCS(=O)(=O)C2)c1 (centres undefined) -27.6% [inhibitor]
